# Measurements from a collection of fitness landscapes (doi:10.1016/j.celrep.2020.107928).
# The full ranking holds about 81,000 sequences; the median of “one-hybrid fitness for binding parS DNA” is about -0.17, and the highest 2% start at about 0.51. The list shows a part of the results.
# B1: Caulobacter ParB omega fusion; a variant is named by its letters at X, in order, B8GW30 (parent)
# chain: MESVVVGEPGMSEGRRGLGRGLSALLGEVDAAPAQAPGEQLGGSREAPIEILQRNPDQPRRTFREEDLEDLSNSIREKGVLQPILVRPSPDTAGEYQIVAGERAWRAAQRAGLKTVPIMVRELDDLAVLEIGIIENVQRADLNVLEEALSYKVLMEKFERTQENIAQTIGKSXSHVANXMRLLXLPDEVQSYLVSGELTAXHARAIAAAADPVALAKQIIEGGLSVRETEALARKAPNLSAGKSKGGRPPRVKDTDTQALESDLSSVLGLDVSIDHRGSTGTLTITYATLEQLDDLCNRLTRGI
# Variants of: B1
# Assay: one-hybrid fitness for binding parS DNA (scaled: cognate 1, non-cognate 0); higher = stronger binding
# Settings: with parS DNA site
# Summary of the method: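 On M9-minus-histidine containing 0.1 mM IPTG and 5 mM 3-AT, E. coli USO cells with a HIS3 reporter, site 19 bp from the promoter, grew 48 hours at 37°C to select Caulobacter ParB libraries randomised at four specificity codons. Plasmids from before and after were Illumina-sequenced, with three replicate libraries pooled and variants under 10 reads left out. Fitness is the log change in variant-to-wild-type read ratio, rescaled against cognate and non-cognate.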
row,Variant,one-hybrid fitness for binding parS DNA
1,HPQI,≤ 0.2
2,GMQC,≤ 0.2
3,HKDC,≤ 0.2
4,ERNY,≤ 0.2
5,RHVL,≤ 0.2
6,GAIA,≤ 0.2
7,HRHH,≤ 0.2
8,RYNG,0.975
9,ANNF,≤ 0.2
10,IDEV,≤ 0.2
11,QFSS,≤ 0.2
12,SEGN,≤ 0.2
13,FRVR,≤ 0.2
14,PHEC,≤ 0.2
15,QNYA,≤ 0.2
16,RVGR,≤ 0.2
17,PWMF,≤ 0.2
18,AIHN,≤ 0.2
19,SGPL,≤ 0.2
20,TPTQ,≤ 0.2
21,MAIR,≤ 0.2
22,TAHF,≤ 0.2
23,RQTK,≤ 0.2
24,QPPV,≤ 0.2
25,PPHK,≤ 0.2
26,TINI,≤ 0.2

row,Variant,one-hybrid fitness for binding parS DNA
1,PRPQ,≤ 0.2
2,WYSS,≤ 0.2
3,RDPG,≤ 0.2
4,SFGT,≤ 0.2
5,PMWT,≤ 0.2
6,AHPW,≤ 0.2
7,PLDN,≤ 0.2
8,TRIH,≤ 0.2
9,GHMG,≤ 0.2
10,LLMW,≤ 0.2
11,TDHV,≤ 0.2
12,EPHT,≤ 0.2
13,QYLN,≤ 0.2
14,RFCS,1
15,RAVH,0.202
16,MNHT,≤ 0.2
17,QPPS,≤ 0.2
18,MSQV,≤ 0.2
19,PKLG,≤ 0.2
20,STMR,≤ 0.2
21,RTPN,0.211
22,RKEA,0.515
23,ECLC,≤ 0.2
24,ASCA,≤ 0.2
25,ALRT,≤ 0.2
26,GIVS,≤ 0.2

row,Variant,one-hybrid fitness for binding parS DNA
1,PYRI,≤ 0.2
2,TQRE,≤ 0.2
3,NREA,≤ 0.2
4,PLAY,≤ 0.2
5,ELFR,≤ 0.2
6,PPVR,≤ 0.2
7,IRFN,≤ 0.2
8,RSID,≤ 0.2
9,WGPD,≤ 0.2
10,MPDS,≤ 0.2
11,LVQR,≤ 0.2
12,NMGG,≤ 0.2
13,KVEI,≤ 0.2
14,RVFF,0.303
15,QCQL,≤ 0.2
16,RIID,≤ 0.2
17,CKPT,≤ 0.2
18,ICPR,≤ 0.2
19,KEMT,≤ 0.2
20,QNID,≤ 0.2
21,DVTY,≤ 0.2
22,ASQH,≤ 0.2
23,PWQR,≤ 0.2
24,MVRT,≤ 0.2
25,GSFP,≤ 0.2
26,LVVG,≤ 0.2

row,Variant,one-hybrid fitness for binding parS DNA
1,WMIG,≤ 0.2
2,GHVL,≤ 0.2
3,HMLT,≤ 0.2
4,PIKM,≤ 0.2
5,MHRV,≤ 0.2
6,QPAY,≤ 0.2
7,QKMC,≤ 0.2
8,VFYR,≤ 0.2
9,RVRM,0.392
10,FEYS,≤ 0.2
11,MIAS,≤ 0.2
12,TAAN,≤ 0.2
13,FRFR,≤ 0.2
14,SCCV,≤ 0.2
15,MQKR,≤ 0.2
16,YMQS,≤ 0.2
17,HPLW,≤ 0.2
18,AYAT,≤ 0.2
19,PFGW,≤ 0.2
20,DMQT,≤ 0.2
21,QAKG,≤ 0.2
22,DLPH,≤ 0.2
23,INST,≤ 0.2
24,FNAI,≤ 0.2
25,WEAC,≤ 0.2
26,LVVM,≤ 0.2

row,Variant,one-hybrid fitness for binding parS DNA
1,HLIR,≤ 0.2
2,NSGK,≤ 0.2
3,GTFD,≤ 0.2
4,RLVV,≤ 0.2
5,PYFT,≤ 0.2
6,SCLN,≤ 0.2
7,FFQG,≤ 0.2
8,LLTT,≤ 0.2
9,AGHC,≤ 0.2
10,DAMT,≤ 0.2
11,NHNS,≤ 0.2
12,VVHE,≤ 0.2
13,RKCQ,≤ 0.2
14,APLW,≤ 0.2
15,LSQV,≤ 0.2
16,AIVC,≤ 0.2
17,CVSW,≤ 0.2
18,AWWW,≤ 0.2
19,DPLL,≤ 0.2
20,CAKW,≤ 0.2
21,TLSG,≤ 0.2
22,RSQS,0.984
23,DSSP,≤ 0.2
24,VVDG,≤ 0.2
25,HTFT,≤ 0.2
26,RFWL,≤ 0.2

row,Variant,one-hybrid fitness for binding parS DNA
1,VYSH,≤ 0.2
2,PSGD,≤ 0.2
3,RWRW,0.211
4,KMAT,≤ 0.2
5,PFAC,≤ 0.2
6,SPMW,≤ 0.2
7,TVAF,≤ 0.2
8,YCQA,≤ 0.2
9,VLSS,≤ 0.2
10,VPKG,≤ 0.2
11,STIA,≤ 0.2
12,NMMY,≤ 0.2
13,TTKD,≤ 0.2
14,VCQW,≤ 0.2
15,TMPV,≤ 0.2
16,RRVQ,≤ 0.2
17,VIET,≤ 0.2
18,DSEV,≤ 0.2
19,VGPW,≤ 0.2
20,WCGR,≤ 0.2
21,SPSH,≤ 0.2
22,LFHS,≤ 0.2
23,MNMR,≤ 0.2
